Values joined by “and” are separate entries in the source; they are usually repeats but may differ in a detail not shown here. Identical values can stand only once. Screen size: about 150,000 compounds; about 6,500 (4.3%) were called active. Inconclusive means that the source gave no clear call. Such entries were picked first, then a sample of the others. Calls follow the shape of the dose curve; as a rule, active = well fitted inhibition curve with a large enough effect (not every such curve was filed as active); inconclusive = small, poorly fitted or top-dose-only effect, or another doubt; inactive = no such curve, though single readings can be large or run the other way. Where the call is inconclusive, the potency comes from a doubtful curve fit.
Each compound was assayed against 15-hydroxyprostaglandin dehydrogenase [NAD(+)] (Homo sapiens) (UniProt P15428) (assay: qHTS Assay for Inhibitors of HPGD (15-Hydroxyprostaglandin Dehydrogenase)). Conditions: purified HPGD, NADH fluorescence kinetic, PGE2 substrate; activity change, negative = inhibition: hits give low values.
Chain of UniProt P15428 (P15428 whole entry, looked up): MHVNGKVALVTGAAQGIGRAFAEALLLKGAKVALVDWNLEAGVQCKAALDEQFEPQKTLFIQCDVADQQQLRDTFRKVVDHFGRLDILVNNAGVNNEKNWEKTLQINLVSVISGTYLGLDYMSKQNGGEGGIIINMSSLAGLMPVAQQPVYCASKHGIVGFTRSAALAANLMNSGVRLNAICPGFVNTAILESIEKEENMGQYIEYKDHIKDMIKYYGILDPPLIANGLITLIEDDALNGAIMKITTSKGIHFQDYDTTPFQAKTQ
Summary of the method: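 NADH formation kinetics: reaction with 30 uM PGE2 and 1 mM NAD+ (final), 20 nM enzyme, Tris-HCl pH 8 with Tween 20, after 15 min compound preincubation at room temperature. Fluorescence change, last versus first of five reads.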
% is scaled to controls: 0 for no effect and ±100 for the full control effect; potency is read from the fitted curve at half-maximal effect; tags tell the direction and shape of the fitted curve.

Row | SMILES | activity change, negative = inhibition | Potency
1 | O=C1c2ccccc2N2C(=O)c3ccccc3[C@H]2N1c1ccccc1 | inactive: -0.89% | –
2 | O=C(C1=C(O)C(=O)N(CCN2CCOCC2)C1c1cccnc1)c1cc2ccccc2o1 (stereo unspecified) | inactive: -11.4% | –
3 | Cc1ccc(C)c(NC(=O)CSc2nnc(CCCCCNC(=O)OC(C)(C)C)o2)c1 | – | active: 17.8 µM
4 | CCCCSc1nc2sc3c(c2c(=O)[nH]1)CCC3 | – | inconclusive: 12.6 µM [inhibitor, partial curve]
5 | CCOc1ccccc1-c1ccc(C(=O)O)s1 | – | inconclusive: 35.5 µM [inhibitor, partial curve]
6 | CSc1nc(C)cc(-n2cc(F)c(=O)[nH]c2=O)n1 | – | active: 14.1 µM
7 | CCN1CC=C2C(C#N)=C(N)C(C#N)(C#N)[C@H](c3ccoc3)[C@H]2C1 | – | inconclusive: 28.2 µM [inhibitor, partial curve]
8 | C/C(=N\Nc1ccccn1)c1ccc(S(=O)(=O)NCc2ccco2)cc1 | inactive: -13.1% | –
9 | CCCCNC(=O)c1ccccc1NC(=O)CCSc1ccccc1 | – | inconclusive: 28.2 µM [inhibitor, partial curve]
10 | CC(C)c1nc2sc3c(SCC(=O)NCc4ccco4)ncnc3c2c2c1CCC2 | – | inconclusive: 15.8 µM [inhibitor, partial curve]
11 | COc1ccccc1-c1nnc(SCC(=O)Nc2ccccc2)o1 | – | inconclusive: 44.7 µM [inhibitor, partial curve, poor fit]
12 | CCc1ccc(N(C)S(=O)(=O)c2ccc3[nH]cc(C(=O)NCCN4CCOCC4)c(=O)c3c2)cc1 | – | inconclusive: 14.1 µM [inhibitor, partial curve]
13 | Cc1ccc(C2CC(=O)c3cnc(N4CCc5ccccc5C4)nc3C2)cc1 (stereo unspecified) | – | inconclusive: 31.6 µM [inhibitor, partial curve]
14 | Cc1cc(=O)[nH]c(SCC(=O)Nc2cccc3ccccc23)c1C#N | – | inconclusive: 25.1 µM [inhibitor, partial curve]
15 | COC(=O)c1ccc(N2CCN(c3ccccc3)CC2)c(NC(=O)C2CC2)c1 | – | inconclusive: 31.6 µM [inhibitor, single point]
16 | Nc1c(C(=O)NCc2ccco2)c2nc3ccccc3nc2n1CCc1ccc(F)cc1 | – | inconclusive: 10 µM [inhibitor, partial curve]
17 | Cc1ccc(C(=O)/C=C/Nc2ccc(S(=O)(=O)Nc3onc(C)c3C)cc2)cc1 | inactive: -26.4% | –
18 | COc1cc(/C=N/NC(=O)CCn2c3ccccc3c3ccccc32)cc(OC)c1OC | – | inconclusive: 35.5 µM [inhibitor, single point]
19 | CN(C(=O)CSCC(=O)O)C1CCCCC1 | inactive: -10.4% | –
20 | FC(F)(F)c1cc(-c2ccco2)nc(-n2nc(C(F)(F)F)cc2C2CC2)n1 | – | inconclusive: 25.1 µM [inhibitor, partial curve]
21 | COC(=O)c1c(NC(=O)C(C)(C)C)sc2c1C(C(=O)OC)CC2 (stereo unspecified) | – | inconclusive: 28.2 µM [inhibitor, partial curve]
22 | CN(C)C(=O)COC(=O)c1ccccc1Nc1ccc(SC(F)F)cc1 | – | inconclusive: 14.1 µM [inhibitor, partial curve]

Row | SMILES | activity change, negative = inhibition | Potency
23 | O=C(c1ccc2c(c1)OCO2)N1CCNc2ccccc2C1 | – | active: 25.1 µM
24 | Cc1cc(/C=N\NC(=O)c2cccs2)c(C)n1-c1ccc2ncccc2c1 | – | inconclusive: 17.8 µM [inhibitor, partial curve]
25 | CCOC(=O)COc1cc2c3c(c(=O)oc2cc1C)CCCC3 | – | inconclusive: 28.2 µM [inhibitor, single point]
26 | CC(=O)N/C(=C/c1ccc(OS(=O)(=O)c2ccc(C)cc2)cc1)C(=O)NCCO | inactive: -21.6% | –
27 | COc1ccccc1-n1cnc2cc(NCc3cccs3)ccc21 | – | inconclusive: 15.8 µM [inhibitor, partial curve]
28 | CCN(CC)c1ccc2c(C)c(-c3ccc(N)cc3)c(=O)oc2c1 | – | inconclusive: 15.8 µM [inhibitor, partial curve]
29 | CCOC(=O)c1sc(NC(=O)c2ccncc2)c(C#N)c1C | – | active: 14.1 µM
30 | COc1ccc(S(=O)(=O)N2CCC(C(=O)NCc3ccccn3)CC2)cc1C | inactive: -8.37% | –
31 | CN1CCc2c(sc3c2C(=O)NC(c2cn(Cc4ccccc4)c4ccccc24)N3)C1 (stereo unspecified) | – | inconclusive: 39.8 µM [inhibitor, single point]
32 | COc1ccc(-c2coc3cc4oc(=O)cc(C)c4cc23)cc1F | – | inconclusive: 28.2 µM [inhibitor, partial curve]
33 | COc1ccc2nc(C)cc(SCC(=O)O)c2c1 | – | inconclusive: 22.4 µM [inhibitor, partial curve] and inconclusive: 20 µM [inhibitor, partial curve]
34 | COc1ccc(C(=O)c2oc3ccccc3c2N)cc1 | – | inconclusive: 10 µM [inhibitor, partial curve]
35 | CCOC(=O)c1c(C)[nH]c(C(=O)COC(=O)c2ccccc2NC(=O)c2ccco2)c1C | – | inconclusive: 39.8 µM [inhibitor, partial curve]
36 | N#Cc1cccc(NC(=O)N2CC[C@@]3(CCCN(C(=O)c4ccco4)C3)C2)c1 | inactive: -1.3% | –
37 | COc1ccc(CNC(=O)CCSc2nc(-c3ccc4c(c3)OCO4)cc(C(F)(F)F)n2)cc1 | – | inconclusive: 31.6 µM [inhibitor, partial curve]
38 | Cc1csc(-c2coc3cc(O[C@@H]4O[C@H](CO)[C@@H](O)[C@@H](O)[C@H]4O)ccc3c2=O)n1 | – | inconclusive: 22.4 µM [inhibitor, partial curve, poor fit]
39 | COc1ccc(/C=N/Nc2nc3ccccc3c(=O)[nH]2)cc1 | – | inconclusive: 22.4 µM [inhibitor, partial curve]
40 | CCC(C)(C)c1ccc(Oc2ccc(NC(=O)COC(=O)C3=COCCO3)cc2)cc1 | – | active: 14.1 µM
41 | CCOc1cccc(C2C(C(=O)c3ccc(C)o3)=C(O)C(=O)N2Cc2ccncc2)c1 (stereo unspecified) | inactive: -10.8% | –
42 | CN(C)S(=O)(=O)c1ccc(Cl)c(NC(=O)CSc2nc3ccccc3c(=O)n2CCCN2CCOCC2)c1 | inactive: -2.96% | –
43 | O=C(OCC(=O)N1CCN(C(=O)c2ccco2)CC1)c1cc(-c2ccc(Cl)c(Cl)c2Cl)nc2ccccc12 | – | inconclusive: 31.6 µM [inhibitor, single point]
44 | COc1ccc2c(c1)Cc1sc(NC(C)=O)nc1-2 | inactive: -1.07% | –

Row | SMILES | activity change, negative = inhibition | Potency
45 | Cc1cc(C)c2c(c1)c(C)cc1nnc(SCC(=O)NCc3ccco3)n12 | – | inconclusive: 22.4 µM [inhibitor, partial curve]
46 | CC(=O)NCCc1cc2ccc(C)c(C)c2[nH]c1=O | – | inconclusive: 20 µM [inhibitor, partial curve]
47 | Cc1cccc(C(=O)Nc2sc3c(c2C#N)CCCCC3)c1 | – | inconclusive: 35.5 µM [inhibitor, partial curve]
48 | Cc1c(C)c2ccc(OS(C)(=O)=O)cc2oc1=O | – | inconclusive: 28.2 µM [inhibitor, partial curve]
49 | COc1cc2cc(C(=O)Nc3ccccc3)c(N)nc2cc1OC | – | inconclusive: 31.6 µM [inhibitor, partial curve]
50 | O=C(O)Cc1ccc(C(=O)c2ccccc2F)s1 | – | active: 15.8 µM
51 | O=C(CC1COc2ccccc2O1)NCCc1ccccc1 (stereo unspecified) | – | active: 7.08 µM
52 | COCCNC(=O)c1cc2oc3ccccc3c2n1C | – | active: 1.41 µM
53 | CCOc1ccc2nc(Cl)c(C3CC(c4ccccc4)=NN3C(=O)c3cccs3)cc2c1 (stereo unspecified) | – | inconclusive: 25.1 µM [inhibitor, partial curve]
54 | CC(=O)N1C2(C=CC1(C)C(=O)NCc1ccc(C)o1)CCCCC2 (stereo unspecified) | inactive: -10% | –
55 | CCN1CCN(C(=O)c2cc3nc(-c4ccccc4)cc(C(F)(F)F)n3n2)CC1 | – | inconclusive: 14.1 µM [inhibitor, partial curve]
56 | COc1ccc(-c2nc(N3CCOCC3)nc3n[nH]c(N)c23)cc1 | – | inconclusive: 17.8 µM [inhibitor, partial curve]
57 | Cc1cc(N2CCN(C3CCCC3)CC2)n2ncc(-c3ccccc3)c2n1 | – | inconclusive: 39.8 µM [inhibitor, single point]
58 | COc1ccccc1NC(=O)c1nc[nH]c1C(=O)Nc1ccccc1OC | – | inconclusive: 8.91 µM [inhibitor, partial curve]
59 | COc1ccc(S(=O)(=O)N2CCN(c3ccc4nnc(-c5ccc(F)cc5)n4n3)CC2)cc1 | – | inconclusive: 35.5 µM [inhibitor, partial curve]
60 | COc1ccc(Cc2nnc(NC(=O)Cn3cnc4c3c(=O)n(C)c(=O)n4C)s2)cc1OC | – | active: 14.1 µM
61 | C=CCn1c(=O)c(C(=O)Nc2ccccc2OC)c(O)c2ccccc21 | – | inconclusive: 31.6 µM [inhibitor, partial curve]
62 | CCn1c(=O)cc(SCC(=O)N2CCN(C)CC2)c2ccccc21 | – | inconclusive: 22.4 µM [inhibitor, partial curve]
63 | Cc1cccc(NC(=O)CSc2nsc(SCC(=O)Nc3cccc(C)c3)c2C#N)c1 | inactive: -17.4% | –
64 | CC(C)CNC(=O)C1CCN(c2ccc(S(=O)(=O)N3CCOCC3)cc2Cl)CC1 | – | active: 15.8 µM
65 | Cc1ccccc1Cn1cc(NC(=O)c2noc3c2CC(C(C)(C)C)CC3)cn1 (stereo unspecified) | – | inconclusive: 31.6 µM [inhibitor, single point]
66 | COC(=O)c1ccc(COc2ccc(C3C4=C(CCCC4=O)Nc4onc(C)c43)cc2)cc1 (stereo unspecified) | – | inconclusive: 28.2 µM [inhibitor, partial curve]

Source: PubChem BioAssay AID894 (National Center for Advancing Translational Sciences (NCATS), 2007)
